Measurements taken from PubChem BioAssay AID504937 (National Center for Advancing Translational Sciences (NCATS), 2011).
In all, about 340,000 compounds went through this assay and about 20 (0.006%) were called active. The shares of active, inactive and inconclusive entries below differ from those in the screen. The call rests on the fitted dose curve; in most records, active means well fitted inhibition curve with a large enough effect; inconclusive means small, poorly fitted or top-dose-only effect; inactive means no such curve, though single readings can be large or run the other way. Where the call is inconclusive, the potency comes from a doubtful curve fit.

Molecular target: Sphingomyelin phosphodiesterase (Homo sapiens) (UniProt P17405)
UniProt P17405, sequence (P17405 whole entry, looked up): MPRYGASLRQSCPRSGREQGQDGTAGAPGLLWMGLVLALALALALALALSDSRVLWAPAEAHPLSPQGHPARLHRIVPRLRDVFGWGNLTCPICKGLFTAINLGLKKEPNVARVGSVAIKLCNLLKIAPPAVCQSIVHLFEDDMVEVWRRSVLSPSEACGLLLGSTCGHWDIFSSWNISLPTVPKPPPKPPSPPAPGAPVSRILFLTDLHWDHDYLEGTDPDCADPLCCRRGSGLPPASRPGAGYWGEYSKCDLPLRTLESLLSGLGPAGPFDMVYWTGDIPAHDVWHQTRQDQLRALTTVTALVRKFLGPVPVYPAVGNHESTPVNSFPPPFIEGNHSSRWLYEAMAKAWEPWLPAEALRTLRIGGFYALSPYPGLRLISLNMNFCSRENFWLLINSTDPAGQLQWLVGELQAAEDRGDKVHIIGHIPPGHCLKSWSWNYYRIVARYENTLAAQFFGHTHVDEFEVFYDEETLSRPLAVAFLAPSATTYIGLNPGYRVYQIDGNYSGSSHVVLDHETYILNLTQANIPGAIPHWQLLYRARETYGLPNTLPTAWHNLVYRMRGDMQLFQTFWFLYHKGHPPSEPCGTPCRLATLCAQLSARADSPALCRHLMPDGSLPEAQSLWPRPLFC
Test: Inhibitors of Secretory Acid Sphingomyelinase (S-ASM): qHTS
Details: placental ASM, HMU-PC fluorogenic substrate (series up to 57.5 µM), 60 min
In short: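 HMU-PC0 cleavage (9 uM final) by human placental ASM, 60 min at 37 °C following 10 min compound exposure at RT; stopped at pH 10, fluorescence Ex 386/Em 447 nm.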
Potency means the concentration at half of the fitted maximal effect; tags describe the fitted curve by direction and shape.

Q: Which Potency does the source give for `O=c1c2ccccc2nc(COc2ccccc2)n1/N=C/c1cc([N+](=O)[O-])ccc1O` here?
A: inconclusive: 178 µM [inhibitor, partial curve, poor fit]

Q: Which Potency does the source give for `CC1(c2ccc(Cl)cc2)NC(=S)N2C1NC(=S)N2c1ccccc1` (stereo not drawn) here?
A: inconclusive: 100 µM [inhibitor, partial curve]

Q: With `COc1cc(/C=C(\C#N)C(=O)c2c(C)[nH]c3ccccc23)cc(OC)c1OC` as the molecule, how does the Potency read?
A: inconclusive: 1260 µM [inhibitor, partial curve, poor fit]

Q: Which Potency does the source give for `COc1ccc(N2C(=O)C(CC(=O)Nc3ccccc3)N(Cc3ccc4c(c3)OCO4)C2=O)cc1` (stereo not drawn) here?
A: inconclusive: 89.1 µM [inhibitor, single point]

Q: For `CCCn1c(C(C)Nc2nc(-c3cc(Cl)c(N)c(Cl)c3)cs2)nc2cc(Cl)c(N3CCCCC3)cc21` (stereo not drawn), which Potency is on record?
A: inactive

Q: `Cc1cnc(C(=O)NC2CC(C)(C)Cc3c2cnn3-c2ccccc2)cn1` (stereo not drawn) was tested. Which Potency did it give?
A: inactive

Q: How did the Potency turn out when `Cc1c(/C=N/n2cnnc2)c2ccccc2n1CCOc1ccc(Cl)cc1` was run?
A: active: 35.5 µM

Q: With `Cn1cc(CC(=O)N2CCN(c3ccc(Cl)cc3)CC2)c2ccccc21` as the molecule, how does the Potency read?
A: inconclusive: 398 µM [inhibitor, partial curve, poor fit]

Q: For `CCOC(=O)N1CCN(C(=O)C2CCN(C(=O)c3ccccc3C)CC2)CC1`, which Potency is on record?
A: inactive

Q: For `Cc1ccc(CN(c2ccc(C(=O)Nc3ccc4c(c3)OCO4)cc2)S(C)(=O)=O)cc1`, which Potency is on record?
A: inactive

Q: With `COc1ccc2c(-c3ccc(OCCN4CCCCC4)cc3)c(-c3ccccc3OC)sc2c1` as the molecule, how does the Potency read?
A: inconclusive: 79.4 µM [inhibitor, partial curve]

Q: `COc1cc(/C=C2/C(=N)N3C(=NC2=O)SN=C3S(=O)(=O)C(C)C)ccc1OC(=O)c1ccco1` was tested. Which Potency did it give?
A: inconclusive: 15.8 µM [inhibitor, partial curve, poor fit]

Q: How did the Potency turn out when `Cc1ccc(N=C2NC(=O)/C(=C/C=C/c3ccco3)S2)cc1` was run?
A: inconclusive: 79.4 µM [inhibitor, single point]

Q: Which Potency does the source give for `CC1=CCC2C(=O)N(c3cccc(C(=O)Nc4ccc(Cl)cc4)c3)C(=O)C2C1` (stereo not drawn) here?
A: inconclusive: 126 µM [inhibitor, partial curve, poor fit]

Q: With `COc1ccc(-c2cc(C(=O)Nc3ccc(C)c(N)c3)c3ccccc3n2)cc1` as the molecule, how does the Potency read?
A: inconclusive: 251 µM [inhibitor, partial curve, poor fit]

Q: How did the Potency turn out when `O=C(COC(=O)/C=C/c1cccs1)NC(c1ccccc1)c1ccccc1` was run?
A: inactive

Q: Which Potency does the source give for `CCOc1ccc(N(CC(=O)Nc2ccccc2C)S(=O)(=O)c2c(C)noc2C)cc1` here?
A: inactive

Q: How did the Potency turn out when `O=C(COc1cc2oc(=O)c3c(c2cc1Cl)CCCC3)NCC1CCC(C(=O)O)CC1` (stereo not drawn) was run?
A: inactive

Q: How did the Potency turn out when `Cc1ccc(-c2cc([C@H]3[C@H]4C=CC[C@@H](C)[C@@H]4C(=O)N3Cc3ccccc3)ccc2F)cc1` was run?
A: inactive

Q: `Cc1onc(-c2ccccc2)c1-c1nc2ccccc2c(=O)o1` was tested. Which Potency did it give?
A: inactive

Q: `COc1cc(/C=C2\SC(=S)N(NC(=O)c3ccc(O)cc3)C2=O)ccc1O` was tested. Which Potency did it give?
A: inconclusive: 63.1 µM [inhibitor, partial curve, poor fit]

Q: How did the Potency turn out when `CC(=O)Nc1ccc(OCC(O)Cn2c3ccccc3c3ccccc32)cc1` (stereo not drawn) was run?
A: inconclusive: 224 µM [inhibitor, partial curve, poor fit]

Q: With `CCOC(=O)N1CCN(C(=O)c2nn(C)c3c2CSc2ccccc2-3)CC1` as the molecule, how does the Potency read?
A: inactive

Q: With `O=C1c2cccc3c(N4CCCCC4)ccc(c23)C(=O)N1c1ccccc1O` as the molecule, how does the Potency read?
A: inconclusive: 100 µM [inhibitor, partial curve, poor fit]

Q: For `O=C(Nc1ccc(S(=O)(=O)N2CCOCC2)cc1)c1cc(-c2cc(Cl)ccc2O)n[nH]1`, which Potency is on record?
A: inconclusive: 63.1 µM [inhibitor, partial curve, poor fit]

Q: With `Cc1cc2c(NC(=O)Nc3ccc(C(C)(C)C)cc3)cccc2nn1` as the molecule, how does the Potency read?
A: inconclusive: 100 µM [inhibitor, partial curve, poor fit]

Q: `COc1cc(/C=C2\SC(=S)N(NC(C)=O)C2=O)ccc1OC(=O)c1ccco1` was tested. Which Potency did it give?
A: inconclusive: 89.1 µM [inhibitor, single point]

Q: `O=C(NCc1ccccc1Cl)c1cc2c(s1)CS(=O)(=O)C2` was tested. Which Potency did it give?
A: inactive

Q: For `Cc1ccc(-c2nn(C)c(=O)c3ccccc23)cc1CNC(=O)NC1CCCCC1`, which Potency is on record?
A: inactive

Q: For `CC1=NN(c2ccc(Cl)cc2)C(=O)C1C(c1cccc(O)c1)c1c(C)[nH]n(-c2ccc(Cl)cc2)c1=O` (stereo not drawn), which Potency is on record?
A: inconclusive: 63.1 µM [inhibitor, single point]

Q: Which Potency does the source give for `O=[N+]([O-])c1ccc(N=NNc2ccccc2)cc1` here?
A: inactive

Q: For `Cc1noc(C)c1CSc1nc2sc(C)c(C)c2c(=O)n1C1CCCC1`, which Potency is on record?
A: inconclusive: 447 µM [inhibitor, partial curve, poor fit]

Q: How did the Potency turn out when `Cc1c(C(=O)Nc2ccc(-c3nnc4n3CCCCC4)cc2)oc2c1ccc1ccccc12` was run?
A: inconclusive: 79.4 µM [inhibitor, single point]

Q: For `CC(C)=CCC12Oc3cc(O)ccc3C1(O)Oc1cc3c(c(O)c1C2=O)C=CC(C)(C)O3` (stereo not drawn), which Potency is on record?
A: inactive

Q: With `O=C(Nc1nc(-c2nc3ccccc3s2)cs1)c1ccc(S(=O)(=O)N2CCOCC2)cc1` as the molecule, how does the Potency read?
A: inconclusive: 141 µM [inhibitor, partial curve, poor fit]

Q: With `O=C(c1cccc2ccccc12)N1CCN(c2ccc([N+](=O)[O-])c(NCc3ccco3)c2)CC1` as the molecule, how does the Potency read?
A: inconclusive: 251 µM [inhibitor, partial curve, poor fit]

Q: How did the Potency turn out when `COc1ccc(C2CC(c3cccs3)=NN2C(=O)CSc2nc3c(cnn3-c3ccccc3)c(=O)[nH]2)cc1` (stereo not drawn) was run?
A: inconclusive: 89.1 µM [inhibitor, partial curve, poor fit]

Q: For `N#Cc1ccc(NC(=O)N2CCC(c3nc4c(nnn4Cc4cccc(Cl)c4)c(=O)[nH]3)CC2)cc1`, which Potency is on record?
A: inconclusive: 79.4 µM [inhibitor, single point]

Q: Which Potency does the source give for `O=C(Cn1cnc2c(cnn2-c2ccccc2)c1=O)Nc1ccc(S(=O)(=O)N2CCOCC2)cc1` here?
A: inconclusive: 89.1 µM [inhibitor, single point]

Q: How did the Potency turn out when `Cc1ccc(-n2nc(C)c3c(C)c(CCC(=O)Nc4ccc(CN5CCCC5)cc4)c(C)nc32)cc1` was run?
A: inactive

Q: `COc1ccc(/C=C2\SC(=S)N(CCCC(=O)N3CCCCC3CCO)C2=O)cc1` (stereo not drawn) was tested. Which Potency did it give?
A: inconclusive: 89.1 µM [inhibitor, single point]

Q: `O=C(N/C(=C/c1cccc([N+](=O)[O-])c1)C(=O)N1CCOCC1)c1ccccc1Br` was tested. Which Potency did it give?
A: inactive

Q: Which Potency does the source give for `Cc1ncc(CO)c(/C=N/NC(=S)Nc2ccc(C(C)C)cc2)c1O` here?
A: inactive

Q: Which Potency does the source give for `O=C(/C(=N/N=C/c1ccc(O)c(O)c1)c1ccccc1)c1ccccc1` here?
A: inconclusive: 126 µM [inhibitor, partial curve, poor fit]

Q: `COC(=O)c1ccc(Oc2c(Cl)cccc2[N+](=O)[O-])cc1` was tested. Which Potency did it give?
A: inactive

Q: With `CC1=C(C(=O)Nc2cc(-c3cccc(F)c3)[nH]n2)C2(CCCCC2)OC1=O` as the molecule, how does the Potency read?
A: inconclusive: 44.7 µM [inhibitor, partial curve, poor fit]

Q: `Cc1[nH]n(-c2cccc3ccccc23)c(=O)c1C=Nc1ccc2[nH]c(=O)[nH]c2c1` was tested. Which Potency did it give?
A: inconclusive: 1120 µM [inhibitor, partial curve, poor fit]

Q: `CCNc1cc(N2CCN(S(=O)(=O)c3ccc4c(c3)CCCC4)CC2)ccc1[N+](=O)[O-]` was tested. Which Potency did it give?
A: inconclusive: 224 µM [inhibitor, partial curve, poor fit]

Q: Which Potency does the source give for `O=[N+]([O-])c1ccc(N/N=C\c2cccn2-c2ccccc2)nc1` here?
A: inconclusive: 100 µM [inhibitor, partial curve, poor fit]

Q: How did the Potency turn out when `O=C(Cc1cccs1)N=Nc1c(O)[nH]c2ccc(Br)cc12` was run?
A: inconclusive: 1260 µM [inhibitor, partial curve, poor fit]

Q: For `C[C@@]12CCC=C[C@H]1[C@H](c1ccc(F)c(/C=C/c3ccccc3)c1)N(Cc1ccccc1)C2=O`, which Potency is on record?
A: inconclusive: 794 µM [inhibitor, partial curve, poor fit]

Q: `COc1cccc(C(=O)NC(c2ccccc2)C2CCCC2)c1` (stereo not drawn) was tested. Which Potency did it give?
A: inconclusive: 447 µM [inhibitor, partial curve, poor fit]

Q: Which Potency does the source give for `O=C(CSc1nccc(-c2cccs2)n1)Nc1ccc(F)c(Cl)c1` here?
A: inconclusive: 100 µM [inhibitor, partial curve, poor fit]

Q: Which Potency does the source give for `Cc1cc(C)c(S(=O)(=O)/N=C2/C=C(SCC(=O)O)C(=O)c3ccccc32)cc1C` here?
A: inconclusive: 89.1 µM [inhibitor, single point]

Q: `O=C(N/N=C/c1cn(-c2cccs2)nc1-c1ccccc1)c1ccccc1Br` was tested. Which Potency did it give?
A: inconclusive: 224 µM [inhibitor, partial curve, poor fit]

Q: Which Potency does the source give for `O=C(NN1C(=O)/C(=C/C=C/c2ccco2)SC1=S)c1ccccc1O` here?
A: inconclusive: 56.2 µM [inhibitor, single point]

Q: With `Cn1c(CCN2CCCCC2)nc2cc(NC(=O)COc3ccc(Cl)cc3)ccc21` as the molecule, how does the Potency read?
A: inactive

Q: How did the Potency turn out when `C=C(C)c1cccc(C(C)(C)NC(=O)N2CCCC2)c1` was run?
A: inactive

Q: Which Potency does the source give for `O=C(O)c1ccccc1NS(=O)(=O)c1ccc(N/N=C/c2cccc(O)c2O)c([N+](=O)[O-])c1` here?
A: inconclusive: 178 µM [inhibitor, partial curve, poor fit]

Q: With `Oc1ccc(N=Nc2ccccc2)cc1` as the molecule, how does the Potency read?
A: inactive

Q: `O=C(NCCc1c[nH]c2ccc(Cl)cc12)c1cccnc1` was tested. Which Potency did it give?
A: inactive

Q: With `COc1ccc(C2=NOC(Cn3nc(-c4ccccc4)cc3C(=O)NCc3cccc(Br)c3)C2)cc1` (stereo not drawn) as the molecule, how does the Potency read?
A: inconclusive: 15.8 µM [inhibitor, partial curve, poor fit]

Q: How did the Potency turn out when `Cc1cc(C)n(CC(O)Cn2c3ccc(Br)cc3c3cc(Br)ccc32)c(=O)n1` (stereo not drawn) was run?
A: inconclusive: 89.1 µM [inhibitor, partial curve, poor fit]
